Experimental findings from PubChem BioAssay AID1508624 (National Center for Advancing Translational Sciences (NCATS), 2021) are described below.

In all, about 48,000 compounds went through this assay and about 120 (0.25%) were called active. Another 4% or so got no clear call; they are omitted. The call rests on the fitted dose curve; in most records, active means well fitted activation curve with a large enough effect; inconclusive means small, poorly fitted or top-dose-only effect, or another doubt; inactive means no such curve, though single readings can be large or run the other way. The list shows a part of the results.

The nature of this assay: Primary qHTS for Identification of Small Molecule Activators of Huntingtin-Antisense Promoter Activity. Further: nearly all actives have a fitted effect of over 55% in size. As to conditions: HEK293 HTT-AS promoter firefly luciferase reporter, 24 h; series mostly up to 57.5 µM; activity change, positive = activation: at the top concentration. The procedure, abridged: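 HEK293 cells carrying firefly luciferase reporters were seeded at 2,500 per well in Opti-MEM and cultured for 24 h. They were then treated with compounds at up to 57.5 uM final for 24 h at 37 degrees C before Dual-Glo luminescence readout.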
For the compound `CCOC(=O)c1c(C)oc2nc(C)nc(N3CCN(c4ccc(C)cc4C)CC3)c12`, the “activity change, positive = activation” value is inactive: -16.6%.

Take `CC(=O)N1CCCc2cc(S(=O)(=O)N3CCC(C(=O)NCc4ccc(F)cc4)CC3)ccc21`: the “activity change, positive = activation” value was inactive: -27%.

On to `CC1(C)O[C@@H]2C[C@H]3[C@@H]4CCC5=CC(=O)C=C[C@]5(C)[C@@]4(F)[C@@H](O)C[C@]3(C)[C@]2(C(=O)CO)O1`, for which the “activity change, positive = activation” value is inactive: -7.18%.

On to `COc1ccccc1N1CCN(C(=O)C2CCN(S(=O)(=O)c3cccc4nonc34)CC2)CC1`, for which the “activity change, positive = activation” value is inactive: -19.3%.

Turning to `Nc1ncc(S(=O)(=O)NCc2ccccc2F)cn1`, the “activity change, positive = activation” value is inactive: -3.12%.

Turning to `Cc1ccc(Nc2cc(C(=O)NC3CCCC3)c3ccccc3n2)cc1C`, the “activity change, positive = activation” value was inactive: -16.2%.

Take `CCOC(=O)c1c(C)n(-c2ccccc2)c2ccc(OC(=O)c3ccccc3Cl)cc12`: the “activity change, positive = activation” value was inactive: 0.508%.

As to `CC(C)COc1ccc(C(=O)NCC2OCCc3ccccc32)cc1` (centres undefined), the “activity change, positive = activation” value is inactive: 2.96%.

For `CCOc1ccc(CCNC(=O)C2CCCN(c3nnc(C)c4c(C)n(-c5ccccc5)nc34)C2)cc1` (centres undefined), the “activity change, positive = activation” value is inactive: -26.6%.

As to `CCCCCCCCCCCCCCCCCCO`, the “activity change, positive = activation” value is inactive: -1.71%.

Take `CCc1ccccc1Nc1nn2c(=O)c3ccc(C(=O)NCCc4ccccc4)cc3nc2s1`: the “activity change, positive = activation” value is inactive: -21.5%.

`Cc1c(Cl)cccc1NC(=O)CN1C(=O)c2ccccc2Sc2ncccc21`: the “activity change, positive = activation” value is inactive: -32.1%.

For the compound `Cc1cccc(C(=O)NC2(C(F)(F)F)N=C(c3ccccc3)N(Cc3ccccc3)C2=O)c1` (centres undefined), the “activity change, positive = activation” value was inactive: -19%.

As for `Cc1ccc(-c2c(CN3CCN(c4cc(Cl)ccc4C)CC3)csc2C)cc1`, the “activity change, positive = activation” value was inactive: -20.8%.

Turning to `CC(=O)N1CCc2c(sc3c2c(=O)n(-c2ccccc2Cl)c(=O)n3C)C1`, the “activity change, positive = activation” value is inactive: -5.68%.

On to `O=C(CSc1nc2ccccc2n1CC(=O)Nc1ccc(F)cc1F)Nc1ccc(F)cc1`, for which the “activity change, positive = activation” value was inactive: 5.49%.

`CCOc1ccc2c(c1)c(=O)c(S(=O)(=O)c1ccc(C)cc1)cn2CC(=O)Nc1ccc(C)cc1`: the “activity change, positive = activation” value is inactive: -9.05%.

For `COc1ccc(-n2c(SCc3nc(-c4ccc(C)cc4)no3)nnc2-c2ccncc2)cc1`, the “activity change, positive = activation” value is inactive: -23.2%.

For `CCn1c(=O)c2cc(C(=O)NCCc3cccc(C)c3)sc2c2ccccc21`, the “activity change, positive = activation” value was inactive: -9.31%.

`COCCCN1CCc2nc(SCC(=O)Nc3ccc(C)c(Cl)c3)[nH]c(=O)c2C1`: the “activity change, positive = activation” value was inactive: 2.91%.

In the case of `CCCN(C(=O)C1CCN(S(=O)(=O)c2c(C)noc2/C=C/c2ccc(C)cc2)CC1)c1ccccc1F`, the “activity change, positive = activation” value is inactive: -2.57%.

Turning to `Cc1cccc(NC(=O)C2CCC(CNS(=O)(=O)c3ccc4c(c3)CCCC(=O)N4)CC2)c1C` (centres undefined), the “activity change, positive = activation” value was inactive: -19.7%.

Consider `CCN1CCOC(=O)C1CC(=O)Nc1ccccc1C(F)(F)F` (centres undefined), for which the “activity change, positive = activation” value was inactive: -4.18%.

Take `Cc1nc(-c2ccc(F)cc2)sc1CCNC(=O)c1ccccc1`: the “activity change, positive = activation” value was inactive: -8.02%.

Turning to `CC(=O)c1ccc(NC(=O)c2cccc(NC(=O)N3CCSc4ncccc43)c2)cc1`, the “activity change, positive = activation” value was inactive: -10.3%.

In the case of `Cc1cc(C)cc(N(C)S(=O)(=O)c2nnc(NC(=O)COc3ccc(C)c(C)c3)s2)c1`, the “activity change, positive = activation” value was inactive: -32.5%.

For the compound `CCOCCCNC(=O)c1c(NC(=O)Cc2coc3c(C)c(C)ccc23)sc2c1CCC2`, the “activity change, positive = activation” value is inactive: -8.15%.

`COC(=O)c1cc(C)nc2c1c(=O)nc(SCc1cc(C)ccc1C)n2C1CC1`: the “activity change, positive = activation” value was inactive: -24.3%.

Take `CCCN(Cc1cc2cc(C)ccc2[nH]c1=O)C(=O)c1cccc(Cl)c1`: the “activity change, positive = activation” value was inactive: 3.66%.

As to `COc1cc(OC)c(NC(=O)COc2ccccc2-c2nnc(-c3ccccc3)o2)cc1Cl`, the “activity change, positive = activation” value was inactive: -14.5%.

With `CCc1ccc(S(=O)(=O)c2nnn3c2nc(N2CCOCC2)c2sccc23)cc1`, the “activity change, positive = activation” value was inactive: -6.71%.

Consider `CCc1c2c(nc3ccc(O)cc13)-c1cc3c(c(=O)n1C2)COC(=O)[C@]3(O)CC`, for which the “activity change, positive = activation” value was inactive: -37.1%.

With `Cc1ccc(N2CC(c3nc(-c4ccc(Cl)cc4)no3)CC2=O)cc1F` (centres undefined), the “activity change, positive = activation” value was inactive: -6.69%.

Consider `Cc1cc(N2CCC(C(=O)Nc3ccc(F)cc3C)CC2)n2nc(C)c(-c3ccc(Cl)cc3)c2n1`, for which the “activity change, positive = activation” value was inactive: 6.68%.

For the compound `Cc1cc(-c2ccccc2)n2nc(-c3ccc(Cl)cc3)cc2n1`, the “activity change, positive = activation” value is inactive: 17.5%.

For the compound `Cc1cc(Br)ccc1NC(=O)C1CCCN(S(=O)(=O)c2cccc3nonc23)C1` (centres undefined), the “activity change, positive = activation” value is inactive: -14.2%.

As to `COc1ccccc1NC(=O)CSc1nnc(NC(=O)NC2CCCCC2)s1`, the “activity change, positive = activation” value is inactive: 29.7%.

With `Cc1ccc(CNC(=O)C2CCN(S(=O)(=O)c3cccc4nonc34)CC2)cc1`, the “activity change, positive = activation” value is inactive: -6.99%.

Consider `COc1ccccc1/C=C/c1nc(C#N)c(N2CCN(C)CC2)o1`, for which the “activity change, positive = activation” value was inactive: -11.2%.

As to `Cc1nn(-c2ccccc2)c2c1cc1c(=O)[nH]c(=O)nc-1n2-c1cccc(Cl)c1`, the “activity change, positive = activation” value is inactive: -7.93%.

In the case of `Cc1cc(=O)c2cc(C(=O)Nc3ccc(C)c(C)c3)ccc2[nH]1`, the “activity change, positive = activation” value was inactive: 12%.

For `CCc1ccc(NCc2cc3cc4c(cc3n(CC(=O)Nc3ccccc3OC)c2=O)OCCO4)cc1`, the “activity change, positive = activation” value was inactive: -5.75%.

With `Cc1cc(NC(=O)Nc2nnc(N(C)C3CCCCC3)s2)ccc1Br`, the “activity change, positive = activation” value is inactive: -15.9%.

In the case of `COc1ccc(C(=O)N2CCC(c3nc4ccccc4s3)CC2)cc1Cl`, the “activity change, positive = activation” value was inactive: -31.7%.

Turning to `Cc1ccc2oc(C(=O)Nc3ccc(S(=O)(=O)N(C)c4ccccc4)cc3)cc(=O)c2c1`, the activity change, positive = activation is inactive: -0.477% [at 11.5 µM, percent change from vehicle, -100% = no light].

Take `CN1C(=O)c2ccccc2C1=O`: the “activity change, positive = activation” value is inactive: -3.42% [at 116 µM, percent change from vehicle, -100% = no light].

On to `Cc1cccc(NC(=O)Cn2ncc3c4ccccc4n(Cc4ccccc4)c3c2=O)c1C`, for which the “activity change, positive = activation” value is inactive: -6.88%.

For the compound `Cc1ccc(S(=O)(=O)CCC(=O)Nc2ccc(OC(F)(F)F)cc2)cc1`, the “activity change, positive = activation” value was inactive: -16.1%.

For `CC(CC1c2ccccc2CCc2ccccc21)CN(C)C` (centres undefined), the “activity change, positive = activation” value is inactive: -10.5%.

For the compound `CN(C)[C@@H]1C(=O)C(C(N)=O)=C(O)[C@@]2(O)C(=O)C3=C(O)c4c(O)cccc4C[C@H]3C[C@@H]12`, the “activity change, positive = activation” value was inactive: -27.9%.

As to `CCOC(=O)O[C@]1(C(=O)OCCl)CC[C@H]2[C@@H]3CCC4=CC(=O)C=C[C@]4(C)[C@H]3[C@@H](O)C[C@@]21C`, the “activity change, positive = activation” value is inactive: -2.42%.

In the case of `CCc1ccccc1NC(=O)Cn1c(=O)n(CCCCCC(=O)NCc2ccc(C)cc2)c(=O)c2sccc21`, the “activity change, positive = activation” value was inactive: -15.9%.

As for `COc1cc(Cl)c(C)cc1NC(=O)CSc1nc2c(c(=O)[nH]1)CCC2`, the “activity change, positive = activation” value is inactive: -14.7%.

Turning to `CCC(Sc1nc2ccncc2[nH]1)C(=O)Nc1cc(Cl)ccc1C` (centres undefined), the “activity change, positive = activation” value is inactive: -24.1%.

As for `O=C(c1ccc2c(c1)N(Cc1ccccc1F)C(=O)c1ccccc1S2(=O)=O)N1CCc2ccccc21`, the “activity change, positive = activation” value was inactive: -28%.

Regarding `COc1cccc(CNC(=O)c2ccc(CNS(=O)(=O)c3ccc(C)cc3)cc2)c1`, the “activity change, positive = activation” value was inactive: -22.1%.

Consider `CCN(c1ccccc1)S(=O)(=O)c1nnc(NC(=O)c2ccccc2)s1`, for which the “activity change, positive = activation” value was inactive: -25.8%.

With `O=C(Nc1ccccc1)N(Cc1c[nH]c2ccccc12)C1CCCCCC1`, the “activity change, positive = activation” value was inactive: 19.7%.

Take `Cc1cccc(OCc2nc(CC(=O)Nc3ccc(C)cc3C)cs2)c1`: the “activity change, positive = activation” value is inactive: -14.5%.
